This passage reports binding signal (log2 normalized intensity) results from publication PMC10726135.

The other results are listed elsewhere or left out. At the low end of the ranking, values are background and their order means little. Measured with an extract: partners may take part in the binding.

The target in the assay is T1, HNF4alpha8 (COS-7 nuclear extract) (UniProt P41235-5).
T1 sequence: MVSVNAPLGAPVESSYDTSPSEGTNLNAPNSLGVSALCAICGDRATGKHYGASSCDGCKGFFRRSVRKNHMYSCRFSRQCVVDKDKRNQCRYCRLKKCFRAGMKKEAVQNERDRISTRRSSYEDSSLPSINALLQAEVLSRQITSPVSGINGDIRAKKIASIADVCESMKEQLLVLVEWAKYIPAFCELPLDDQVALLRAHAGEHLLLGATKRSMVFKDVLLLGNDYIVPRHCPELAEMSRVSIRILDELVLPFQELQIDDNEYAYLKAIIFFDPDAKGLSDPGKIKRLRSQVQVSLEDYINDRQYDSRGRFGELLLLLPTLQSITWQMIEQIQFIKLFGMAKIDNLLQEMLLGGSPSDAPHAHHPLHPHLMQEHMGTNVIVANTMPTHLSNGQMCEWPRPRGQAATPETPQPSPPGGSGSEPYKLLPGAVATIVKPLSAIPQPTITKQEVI
Kind of assay: protein-binding microarray. The note with it: COS-7 nuclear extract on double-stranded Agilent 4x180k PBM; binding buffer, salt, pH and temperature not given; high values mean tight binding; double strand, one strand shown; sequences stand for … in …GCCTAGGGAGATTAGAGTATCGGTCGA
Turning to AATGCTTTACAAGGTGGTTGCTGTTATCTT, the binding signal (log2 normalized intensity) was found to be 1.04.

As to CCGTGACCCTCAGGAACCAAGCATTTTGCA, the binding signal (log2 normalized intensity) is -0.757.

AAGAATTCCTAATAATACTGACTGAGAAAC: the binding signal (log2 normalized intensity) is -1.23. Then TTGGTGGTGAGGGTGGGCCTGGGGGGAGAC, with -1.36; and ATAAGAACACAAAAAGCCTGAGCATCTTAT, with -1.31. In the case of ATGACTCACTCAAGGCAGCTCAGCTAGTGA, the binding signal (log2 normalized intensity) was -1.37. Turning to ACCCTCATTTGCTTGACCCGGGTACTGGAA, the binding signal (log2 normalized intensity) turned out to be 2.08. Then CTAGGAGCATGTCAAAAGCTAAATACCCTC, with -0.824; and TCAAAGTCCAAATAGCGCTAACTCTATATC, with 0.779; and TCACTTAAAATGAGACTTCCCAGCTGCTGG, with -1.4. In the case of TCTCTCAGTCTCTGTGGGAGAGTAAGTGCT, the binding signal (log2 normalized intensity) was determined as 0.228. Then CTGACTGCTGACCTTTAAGCCTATAGTTTC, with 3.37. Then TACTCAAAGGTTAACATTCTTGCTTTCTGA, with 1.05. In the case of CTACCTTTGCTCTTAATTCAATGGGGTGGG, the binding signal (log2 normalized intensity) came to 1.49. For GCTCACTATTAACTTTTCCATGTCCAAAGG, the binding signal (log2 normalized intensity) came out at 3.02. Take AGTTTTGAGTGTGTTTCTTGTTTCAGAGTA: the binding signal (log2 normalized intensity) was 1.38. Then CTTTCCTGTTGGGGAGCAAAGGTTAGCAAG, with 4.65; and TCGGCTCTCAGCGGAACTTTCCTCTCCGCG, with -1.35; and GTCTCAGGTGGAGATAAGGAATTTGTTAAG, with 0.851. Consider CTCCTGCGGTCCGGACTCTGCCCCACAATT, for which the binding signal (log2 normalized intensity) came to 4.69.

As for ATCCAACCTTCTCCCACTTCCCTGCCTTTG, the binding signal (log2 normalized intensity) was determined as 0.565. TTGTACTTTGGAGTTTACTTTAGATGTGTT: the binding signal (log2 normalized intensity) was found to be 3.36.

With CAGATCACAAAGGAGCTTGTAAGCCACAGT, the binding signal (log2 normalized intensity) was -1.3. Regarding TGTGAAGAGTGTGGACTTTCACCTCCACCA, the binding signal (log2 normalized intensity) was found to be 6.7. Take TTTGTCGCCTCTGACTTCTGACTTTTACCC: the binding signal (log2 normalized intensity) came to 2.96. Turning to GGCTCAATGAGGTCAATAGTCCAGATACAG, the binding signal (log2 normalized intensity) amounted to 4.17. As for GTGATACTCAAGGCATTTTCTTGTTGACTT, the binding signal (log2 normalized intensity) was 0.336. Then TCCCCAGAGCCCCCTTGATGCATCAGACCC, with 4.7.

Consider GGAAAACCAGAGACCTTTGTTCACTTGTTT, for which the binding signal (log2 normalized intensity) was 3.09. Then GATACTGATAACATGAGGTAGAGGGACACT, with -1.34; and ACCATGAGGTGACGGCTAAGAGAAATCCAC, with -1.33; and ATGTAATGTATGCATAGACTGCCCAGAATT, with 0.899. Then GGTGTGCTGTTAGCTGAAGGACGTCAGAAC, with -0.834; and GGGGGCAAGGTACACCATCTATGAGCTCAA, with 2.6. Then GGCTTTTGGGCCCTGTCTGATAAGGGTGTT, with 0.84; and TTGTTGGGTCAGTTTATCGAAAATCCCCCA, with 3.92; and CATTTGGGGTCAGATAATTCTTTGCTGTGG, with 1.85.

For ATGGGATGACCTTTGAGCAATAGGAAATGG, the binding signal (log2 normalized intensity) came out at 4.79. With ACTTTCCCCCCTCACACTTTGGCTACTCAG, the binding signal (log2 normalized intensity) amounted to 3.01.

Turning to ATCCCATTCCCTCTAATCTGGGACAAGGGG, the binding signal (log2 normalized intensity) was -1.24. Take CTCTGAGTTTTGAGTGTGTTTCTTGTTTCA: the binding signal (log2 normalized intensity) is 1.51.

For the sequence TTTGTGTGTTCCTTTTTCTGTTCAATGGTG, the binding signal (log2 normalized intensity) worked out at 2.44. Turning to AGTATCCTGGTAGTGCGACAAGAATGTGGT, the binding signal (log2 normalized intensity) came to 0.616.

GGTCTCCTTGCCCCACCCCCCACCCCAGAA: the binding signal (log2 normalized intensity) was 6.87. As for CCAGCCCCGGGAATTCTGGGTAGTGTAGTT, the binding signal (log2 normalized intensity) was determined as 1.02. For the sequence AATGGACATCTCTAGGAACTCTGAGCTCTT, the binding signal (log2 normalized intensity) is -1.11. Then TACTCCTCCTGGCTTCTGGACTATGCCTTG, with 3.7; and TGCAGCAGGGGAATGGAGACACACCTGCGG, with -1.31.

Regarding GATCAAGGCTCCCTGGCCACAGGAATGTGA, the binding signal (log2 normalized intensity) was -1.3. TTATGCAGACCTTTGCCCTTTGTTTACATA: the binding signal (log2 normalized intensity) is 5.95. Then AGGGGATTAGCATTTTTGTCTTTAACCCAA, with 0.126. Then GAGTCAACAGGCAGAAGAATGGATGAGCTA, with -1.21; and CAGGGGTTAGGGTGAAGTAAAGTTATACTT, with 0.131; and TCATTGTACAAACACATACCTTAAATAAGA, with -1.25.

In the case of GCACCCCGGGAGCGCCGAGCACGTCGAGCA, the binding signal (log2 normalized intensity) is -1.38. Then GATCAGAATCATAAAGCAGGGAGAGTTGCA, with -1.29. Then ACATTTTAACACAGGACAAATCAAGTGAAA, with -1.15; and GGGAGGGAACAGTCCAGAGTCTGACAGAAC, with -1.34. Then TGATCGCCCTCCCCCAGAGAGAACAGTCCT, with 4.87; and GTGGCCGGACAGGTTGGGTCTGAAGCCACA, with -1.34.

On to AACCAAGCCTGCAGCACCTTGATGCTGGAC, for which the binding signal (log2 normalized intensity) was -0.455. Take GAAAGTGAGCAGGCAGTGTCACAGAAATCA: the binding signal (log2 normalized intensity) was -1.17. With AATACAGAGTCCAAATTCCTTGGTATGGCA, the binding signal (log2 normalized intensity) was found to be 2.57. As for ACCCAGGCATACTCAGTTATCAACCTTATC, the binding signal (log2 normalized intensity) is -0.234. Then TGTCTCTGGTCAGGGAGGGCTTTAGAATGT, with -0.436. As for TTGCTACACTGCCAAAGTTCAACCATACAC, the binding signal (log2 normalized intensity) came out at 1.53.

On to ATCTACTTTTTGACCTTGCAGTGGCAAGGC, for which the binding signal (log2 normalized intensity) came out at 2.37. Then TTCGGCACCTTCTACACAGCACCCCTTGCA, with 2.41.

As to TTGGATAACCTTCTGCTGGATGCCCAGGGA, the binding signal (log2 normalized intensity) worked out at 0.481. For the sequence CTCCTCACTATTGTGCTAATATAAGTCATT, the binding signal (log2 normalized intensity) was 1.14.

CTGTTCTAAGCACCTCTGCTTATCTCAACT: the binding signal (log2 normalized intensity) is -1.23. Take ACAGGCTGAGGATCTAATGCACCCAGAACC: the binding signal (log2 normalized intensity) was -1.36. GCGGTTCATCCAACAGGTGAGGTGGGTGTT: the binding signal (log2 normalized intensity) came to 1.12. Then GCTATCAGTACTGAAACATGCCTATGACCG, with 1.74. Regarding ATAAGGGTATGGATTCTGGGACCCACCCAC, the binding signal (log2 normalized intensity) worked out at 1.33. Then CATATCAGCTTTCTTTTCCAACCATTGACA, with 2.32.

For the sequence TTGTGTTATGTACTTAGTGTTTTATGTGTA, the binding signal (log2 normalized intensity) is 2.3.

As to ATTCAGAGGTCAGGGGAGAGAGGCAAGATC, the binding signal (log2 normalized intensity) was -1.25. Then TTTGTTAAGTACCCACTATAGATTGTGAGA, with 0.693; and ATTTCCTGCAGGTGGTGACCCCAGACCTTA, with 4.34.

As to GTACAGAGAGCATTCTGCTGCTCTTTAATC, the binding signal (log2 normalized intensity) was 0.966. Then GCGGAAGGACACAGATTCAGAGTCACATTT, with -0.253.

Take TCTGGATGCCTCACCTGGCAAGGCAGCCTC: the binding signal (log2 normalized intensity) was -1.46. With AGAGACCTGGCGGATAGATAGAATCTTAAC, the binding signal (log2 normalized intensity) was -1.28. In the case of AAATTTATCTATTGGGTACAATGTTCACTA, the binding signal (log2 normalized intensity) was found to be 3.63. Then GTGTTTAACCTTTGGGTGTGTTCAGCGAGG, with 2.34. Then ACTAAAGTTCAGGAGGGAGGAGCATTTCAC, with -1.24; and TTGTGATTTCCAAAAGGTACCACTGTTTGC, with 0.597. With CGGGCGCCCTGGTCTCTGCTACCTGTAGCT, the binding signal (log2 normalized intensity) is -1.19.

For the sequence TAGGCTGGACTCTGACCCATTCCTTCTCAC, the binding signal (log2 normalized intensity) was found to be 5.01. Consider CAACTCCACGCCCGCCGCCAGGTGGCCGAG, for which the binding signal (log2 normalized intensity) is -1.21. Then TCAGAACTTCACTCAGTGGGGTGTCTGTGT, with 1.89; and AACGGGGACGCTTTAGAGAAACGCACTCGC, with -1.11.
